Results as given in the GPR68 mutational scans of Howard et al. (2025).
Scores with a large standard error are left out. Two further conditions of the source, in which the scores hardly spread, are not listed. In variant names, del marks residues removed and ins residues inserted between the two positions. For some assays here: The concentration of ogerin is not given here.

B1: GPR68, Q15743 (parent)
chain: MGNITADNSSMSCTIDHTIHQTLAPVVYVTVLVVGFPANCLSLYFGYLQIKARNELGVYLCNLTVADLFYICSLPFWLQYVLQHDNWSHGDLSCQVCGILLYENIYISVGFLCCISVDRYLAVAHPFRFHQFRTLKAAVGVSVVIWAKELLTSIYFLMHEEVIEDENQHRVCFEHYPIQAWQRAINYYRFLVGFLFPICLLLASYQGILRAVRRSHGTQKSRKDQIQRLVLSTVVIFLACFLPYHVLLLVRSVWEASCDFAKGVFNAYHFSLLLTSFNCVADPVLYCFVSETTHRDLARLRGACLAFLTCSRTGRAREAYPLGAPEASGKSGAQGEEPELLTKLHPAFQTPNSPGSGGFPTGRLA

What was measured:
[1] = variants of: B1; experiment: cAMP reporter score (Enrich2 score, wild type = 0); higher = more signal; HEK293T, FACS bins
[2] = variants of: B1; experiment: surface expression score (Enrich2 score, wild type = 0); higher = more signal; HEK293T, FACS bins

Variant: MGNITADNSSMSCTIDHTIHQTLAPVVYVTVLVVGFPANCLSLYFGYLQIKARNELGVYLCNLTVADLFYICSLPFWLQYVLQHDNWSHGDLSCQVCGILLYENIYISVGFLCCISVDRYLAVAHPFRFHQFRTLKAAVGISVVIWAKELLTSIYFLMHEEVIEDENQHRVCFEHYPIQAWQRAINYYRFLVGFLFPICLLLASYQGILRAVRRSHGTQKSRKDQIQRLVLSTVVIFLACFLPYHVLLLVRSVWEASCDFAKGVFNAYHFSLLLTSFNCVADPVLYCFVSETTHRDLARLRGACLAFLTCSRTGRAREAYPLGAPEASGKSGAQGEEPELLTKLHPAFQTPNSPGSGGFPTGRLA [V141I]
- cAMP reporter score ([1]; pH 5.5): 1.12
- cAMP reporter score ([1]; pH 6): 1.14
- cAMP reporter score ([1]; pH 6, modulator: ogerin): 0.995
- cAMP reporter score ([1]; pH 6.5, modulator: ogerin): 0.786
- surface expression score [2]: 0.65

Variant: MGNITADNSSMSCTIDHTIHQTLAPVVYVTVLVVGFPANCLSLYFGYLQIKARNELGVYLCNLTVADLFYICSLPFWLQYVLQHDNWSHGDLSCQVCGILLYENIYISVGFLCCISVDRYLAVAHPFRFHQFRTLKAAVGKSVVIWAKELLTSIYFLMHEEVIEDENQHRVCFEHYPIQAWQRAINYYRFLVGFLFPICLLLASYQGILRAVRRSHGTQKSRKDQIQRLVLSTVVIFLACFLPYHVLLLVRSVWEASCDFAKGVFNAYHFSLLLTSFNCVADPVLYCFVSETTHRDLARLRGACLAFLTCSRTGRAREAYPLGAPEASGKSGAQGEEPELLTKLHPAFQTPNSPGSGGFPTGRLA [V141K]
- cAMP reporter score ([1]; pH 5.5): -1.14
- cAMP reporter score ([1]; pH 6): -0.752
- cAMP reporter score ([1]; pH 6, modulator: ogerin): -3.21
- cAMP reporter score ([1]; pH 6.5, modulator: ogerin): -1.33
- surface expression score [2]: -2.03

Variant: MGNITADNSSMSCTIDHTIHQTLAPVVYVTVLVVGFPANCLSLYFGYLQIKARNELGVYLCNLTVADLFYICSLPFWLQYVLQHDNWSHGDLSCQVCGILLYENIYISVGFLCCISVDRYLAVAHPFRFHQFRTLKAAVGLSVVIWAKELLTSIYFLMHEEVIEDENQHRVCFEHYPIQAWQRAINYYRFLVGFLFPICLLLASYQGILRAVRRSHGTQKSRKDQIQRLVLSTVVIFLACFLPYHVLLLVRSVWEASCDFAKGVFNAYHFSLLLTSFNCVADPVLYCFVSETTHRDLARLRGACLAFLTCSRTGRAREAYPLGAPEASGKSGAQGEEPELLTKLHPAFQTPNSPGSGGFPTGRLA [V141L]
- cAMP reporter score ([1]; pH 5.5): -0.836
- cAMP reporter score ([1]; pH 6): -0.395
- cAMP reporter score ([1]; pH 6, modulator: ogerin): -0.817
- cAMP reporter score ([1]; pH 6.5, modulator: ogerin): -1.26
- surface expression score [2]: -1.35

Variant: MGNITADNSSMSCTIDHTIHQTLAPVVYVTVLVVGFPANCLSLYFGYLQIKARNELGVYLCNLTVADLFYICSLPFWLQYVLQHDNWSHGDLSCQVCGILLYENIYISVGFLCCISVDRYLAVAHPFRFHQFRTLKAAVGHSVVIWAKELLTSIYFLMHEEVIEDENQHRVCFEHYPIQAWQRAINYYRFLVGFLFPICLLLASYQGILRAVRRSHGTQKSRKDQIQRLVLSTVVIFLACFLPYHVLLLVRSVWEASCDFAKGVFNAYHFSLLLTSFNCVADPVLYCFVSETTHRDLARLRGACLAFLTCSRTGRAREAYPLGAPEASGKSGAQGEEPELLTKLHPAFQTPNSPGSGGFPTGRLA [V141H]
- cAMP reporter score ([1]; pH 5.5): -1.25
- cAMP reporter score ([1]; pH 6): -1.17
- cAMP reporter score ([1]; pH 6, modulator: ogerin): -1.75
- cAMP reporter score ([1]; pH 6.5, modulator: ogerin): -0.958
- surface expression score [2]: -2.54
